The subject of the series is CCRIS mutagenicity, Ames/micronucleus/aberration tests. Kind of series: CCRIS mutagenicity studies.
Setting [1] is: Test System: AMES SALMONELLA TYPHIMURIUM, Strain/Indicator: TA100, Metabolic Activation: NONE, Method: STANDARD PLATE.
[2] abbreviates: Test System: AMES SALMONELLA TYPHIMURIUM, Strain/Indicator: TA98, Metabolic Activation: NONE, Method: STANDARD PLATE.
Setting [3] is: Test System: AMES SALMONELLA TYPHIMURIUM, Strain/Indicator: TA98, Metabolic Activation: RAT, LIVER, S-9, AROCLOR 1254, Method: STANDARD PLATE.

SMILES strings stand for the structures. Not every entry of the source has a single result; some have several. The list is limited to them. No rule for the calls is given here. An entry can have further records. The records of an entry are repeats across runs, samples, wells, individuals or studies. What stands in brackets tells the records apart. Letters hold for one entry only.

Regarding `CC(C)COS(=O)(=O)c1ccccc1`, the mutagenic call by setting is: (End Point: IN VITRO MICRONUCLEUS, Test System: MOUSE LYMPHOMA L5178Y CELLS, Metabolic Activation: NONE) “inactive; negative [sample A, 100 to 1000 µg/mL] and active; positive [sample B, 100 to 1000 µg/mL]”; (End Point: IN VITRO MICRONUCLEUS, Test System: MOUSE LYMPHOMA L5178Y CELLS, Metabolic Activation: RAT, LIVER, S-9) “inactive; negative [sample A, 100 to 1000 µg/mL] and active; positive [sample B, 100 to 1000 µg/mL]”; under setting [1], “inactive; negative [sample A, 15 to 5000 µg/plate] and active; positive [sample B, 15 to 5000 µg/plate]”.

Regarding `CC(=O)Nc1ccc2ccc3ccc(O)c4ccc1c2c34`, the mutagenic call by setting is: under setting [2], “inactive; negative [study A, 0.1 to 5 µg/plate] and active; positive [study B, 0.01 to 5 µg/plate]”; under setting [3], “inactive; negative [study A, 0.1 to 5 µg/plate] and active; positive [study B, 0.01 to 5 µg/plate]”.

As for `COC(=O)[C@H]1O[C@@H]1c1ccccc1`, the mutagenic call under setting [1] was “inactive; negative [sample A, 0 to 15000 µg/plate] and active; positive [sample B, 1500 to 3000 µg/plate]”.

Consider `COc1c(Cl)c(Cl)c(Cl)c(Cl)c1Cl`, for which the mutagenic call (Test System: AMES SALMONELLA TYPHIMURIUM, Strain/Indicator: TA98, Metabolic Activation: NONE, Method: PREINCUBATION) was “active; positive [study A, 100 to 10000 µg/plate] and inactive; negative [study B, 10 to 1000 µg/plate]”.

Regarding `O=C(/C=C/c1ccccc1)c1ccc([N+](=O)[O-])cc1`, the mutagenic call reads like this: under setting [2], “inactive; negative [study A] and active; positive [study B]”; under setting [3], “inactive; negative [study A] and active; positive [study B]”.

With `CC1=CC(=O)c2ccccc2C1=O`, the mutagenic call is, setting by setting: (Test System: AMES SALMONELLA TYPHIMURIUM, Strain/Indicator: TA100, Metabolic Activation: NONE, Method: PREINCUBATION) “inactive; negative [study A] and active; positive [study B]”; (Test System: AMES SALMONELLA TYPHIMURIUM, Strain/Indicator: TA104, Metabolic Activation: NONE, Method: PREINCUBATION) “inactive; negative [study A] and active; positive [study B]”.

The record behind these values is PubChem BioAssay AID1259407 (Chemical Carcinogenesis Research Information System (CCRIS), 2018).
